Measured values as given in paper PMC4336329 (PLoS ONE, 2015).
In all, about 310,000 compounds went through this assay and about 2,200 (0.71%) showed an effect of 50% or more. The effect is printed as a negative number. The list shows a part of the results.

Each molecule was assayed against human ether-à-go-go-related gene (hERG) potassium channel (human, UniProt Q12809) (assay: primary screen, population patch clamp on CHO cells stably expressing hERG).
Chain of human ether-à-go-go-related gene (hERG) potassium channel (Q12809 whole entry, looked up): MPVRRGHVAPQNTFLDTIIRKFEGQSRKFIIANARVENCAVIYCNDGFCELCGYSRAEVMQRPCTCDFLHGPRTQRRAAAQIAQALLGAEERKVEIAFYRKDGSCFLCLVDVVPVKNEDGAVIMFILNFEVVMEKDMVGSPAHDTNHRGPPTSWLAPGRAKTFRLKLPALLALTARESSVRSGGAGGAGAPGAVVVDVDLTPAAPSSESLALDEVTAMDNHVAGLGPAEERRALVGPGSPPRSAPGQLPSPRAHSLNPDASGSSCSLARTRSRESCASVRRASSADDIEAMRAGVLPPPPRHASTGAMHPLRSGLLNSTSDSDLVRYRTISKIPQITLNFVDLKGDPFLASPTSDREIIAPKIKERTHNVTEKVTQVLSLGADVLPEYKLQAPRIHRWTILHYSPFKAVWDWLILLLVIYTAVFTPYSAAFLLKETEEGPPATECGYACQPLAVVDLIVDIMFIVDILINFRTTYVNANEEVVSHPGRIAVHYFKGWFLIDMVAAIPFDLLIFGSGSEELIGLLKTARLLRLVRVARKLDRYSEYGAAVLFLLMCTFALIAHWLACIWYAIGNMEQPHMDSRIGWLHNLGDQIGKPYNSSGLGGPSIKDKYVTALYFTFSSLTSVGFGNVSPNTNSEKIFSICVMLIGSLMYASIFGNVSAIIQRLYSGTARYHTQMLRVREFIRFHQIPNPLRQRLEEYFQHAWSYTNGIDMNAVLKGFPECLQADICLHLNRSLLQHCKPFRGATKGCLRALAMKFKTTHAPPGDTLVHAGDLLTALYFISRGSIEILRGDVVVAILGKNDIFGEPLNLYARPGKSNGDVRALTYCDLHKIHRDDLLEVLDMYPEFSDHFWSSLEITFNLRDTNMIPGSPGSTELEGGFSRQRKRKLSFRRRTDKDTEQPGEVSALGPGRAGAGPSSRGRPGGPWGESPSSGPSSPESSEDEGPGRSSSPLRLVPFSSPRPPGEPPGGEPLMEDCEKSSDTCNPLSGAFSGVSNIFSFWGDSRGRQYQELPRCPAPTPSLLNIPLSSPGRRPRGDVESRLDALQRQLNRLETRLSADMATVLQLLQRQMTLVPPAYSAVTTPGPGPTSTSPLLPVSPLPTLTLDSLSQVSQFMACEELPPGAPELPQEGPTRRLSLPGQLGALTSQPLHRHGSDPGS

Compound | hERG current change (%, negative = inhibition) at 1uM [%]
O=C(/C=C/c1ccc(F)cc1)Nc1cccc(S(=O)(=O)Nc2cccc(C(F)(F)F)c2)c1 | 17.9
Cc1cc(C)cc(C(=O)NCC(=O)OC(C)C(=O)N(C)c2ccccc2)c1 (centres unmarked) | 12.5
COc1ccc(-c2cc(C(F)(F)F)c(C#N)c(=O)[nH]2)cc1 | 14.7
Cc1ccc2c(c1)[C@H]1[C@H](CO2)[C@H](c2ccccc2)[C@]2(C)C(=O)N(Cc3ccc(Cl)cc3)CC(=O)N12 | 16.2
Cc1ccc(C(=O)COC(=O)CCC(=O)Nc2cccc(Cl)c2)cc1[N+](=O)[O-] | 11.1
O=S(=O)(N/N=C/c1ccc(F)cc1)c1ccccc1 | 8.45
Cc1cc(N2CCCC2=O)cc(C)c1S(N)(=O)=O | 7.43
COc1ccc(NC(=O)CC2C(=O)NCCN2C(=O)c2ccccc2)cc1 (centres unmarked) | 12.9
CC1=C(C(=O)Nc2cccc(C(=O)NCc3ccccc3C)c2)SCCO1 | 13.4
CCC(O)(CC)C(=O)NN(C(=O)CCl)c1ccccc1 | 15.9
Cc1ccc(Cn2c(=N)c(C(=O)NCc3ccco3)cc3c(=O)n4ccccc4nc32)cc1 | -67.9
CN(C)S(=O)(=O)c1cccc(NC(=O)c2sccc2-c2ccccc2)c1 | 4.26
O=C(Nc1cccc(-n2cnnn2)c1)c1cccnc1 | 14.8
COc1ccc(C(=O)c2c(-c3ccc(OC)cc3)oc3ccc(-c4ccc(OC)nc4)cc23)cc1 | 9.93
CCN(CC)Cc1c[nH]c2c(C(=O)OC)cccc12 | 1.12
COc1cccc(COc2ccc3c(C)cc(=O)oc3c2)c1 | 11.6
CC(C)CCN1CCN(Cc2c(F)cccc2Cl)CC1CCO (centres unmarked) | 7.52
COC(=O)c1sccc1S(=O)(=O)NC(C)c1cnn(-c2ccc(OC)cc2)c1C (centres unmarked) | 13.1
C/C(N)=C(/C#N)C(=O)COC(=O)c1cc(-c2ccc(Br)cc2)nc2ccccc12 | 8.69
CCOC(=O)c1ccc(NC(=O)CCNS(=O)(=O)c2cc(Br)cnc2N)cc1 | 18.4
Cc1ccc(S(=O)(=O)Oc2ccc(C3C4=C(CCCC4=O)OC4=C3C(=O)CCC4)cc2)cc1 | -4.96
COc1cc(OC)c(OC)cc1CNc1cc(C)ccc1OC | 3.33

Compound | hERG current change (%, negative = inhibition) at 1uM [%]
O=[N+]([O-])c1cccc(/C=N/NC2=NCCCCC2)c1 | -70.9
Cn1c(CN2CCN(C(=O)c3ccccc3Cl)CC2)nc2cc([N+](=O)[O-])ccc21 | -46.2
O=C(NCc1cccnc1)c1ccc(CS(=O)(=O)c2ccc(Cl)cc2)o1 | -1.09
Nc1cc(C(=O)O)ccc1N1CCCCCC1 | 9.85
O=c1o[nH]c(-c2ccccc2)c1N=Nc1c(F)cccc1Cl | 10.6
Cc1cc(NC(=O)CCCn2cnc([N+](=O)[O-])n2)no1 | 9.05
CC1CCCN(Cc2ccc(OCc3ccccc3)cc2)C1 (centres unmarked) | -10.3
Cc1ccc(S(=O)(=O)N(C(=O)c2ccncc2)c2ccc(OC(=O)c3ccncc3)c3ccccc23)c(C)c1 | -14.2
Cc1ccc(C(=O)Nc2ccc(-n3ccnc3P(=O)([O-])c3ccccc3)cc2)cc1.[K+] | 15
COc1cc2[nH]c(=S)n(Cc3ccc(F)cc3)c(=O)c2cc1OC | 13.9
CCOC(=O)COc1cc2c3c(c(=O)oc2cc1C)CCCC3 | 10.1
Cc1ccc(C)c(NC(=O)NNC(=O)CCc2ccccc2)c1 | 17.8
CC(=O)O[C@H]1C(=O)[C@@]2(C)C([C@H](OC(=O)c3ccccc3)[C@]3(O)C[C@H](OC(=O)[C@H](O)[C@@H](NC(=O)c4ccccc4)c4ccccc4)C(C)=C1C3(C)C)[C@]1(OC(C)=O)CO[C@@H]1C[C@H]2O (some centres unmarked) | 14
CCCc1nc2sc3c(c2c(=O)[nH]1)CCCC3 | 5.75
CC1CCN(c2ccccc2NC(=S)NC(=O)c2ccco2)CC1 | 8.35
CC1=NN(Cc2c(C)nn(Cc3ccccc3)c2C)C(C)(C)C1 | 13.4
Cc1ccc(CNC(=O)c2csc3c2CCCCC3)cc1 | 8.37
CCOC(=O)C1CCCN(CCC(=O)Nc2c(C(=O)OC)[nH]c3cc(OC)ccc23)C1 (centres unmarked) | -38
COc1ccc(CCNC(=O)c2cc3ccccc3oc2=O)cc1 | 23.1
O=c1c2c(-c3cccs3)csc2ncn1-n1cccc1 | 12.7
CCOc1cc(C=C(C#N)C#N)ccc1Oc1ccc([N+](=O)[O-])cn1 | 18
Cc1cccc2c1CC(C)(C)N=C2C1=C(O)CCCC1=O | 4.53

Compound | hERG current change (%, negative = inhibition) at 1uM [%]
Cc1cccc(C(=O)NNC(=O)c2ccccc2-n2cccc2)c1 | 9.54
CC(Nc1ccc2c(c1)OCCO2)C(=O)N1CCc2ccccc21 (centres unmarked) | 15.9
COc1cc(C2C(C#N)=C(SC)NC3=C2C(=O)CCC3)ccc1O (centres unmarked) | 7.21
O=C(c1c(Cl)nc2sccn12)N(C(=O)c1c(Cl)nc2sccn12)c1ccc(Cl)cn1 | 7.62
Nc1c(-c2nn[nH]n2)cnn1-c1cc(Cl)cc(Cl)c1 | 14.4
COc1cc(/C=N/n2cnnc2)ccc1OCc1ccc(C)cc1 | 9.82
CSc1nc2cc(Cl)ccc2s1 | -1.02
O=C(Nc1nc(-c2ccccc2)cs1)C1CCCCN1S(=O)(=O)c1ccc(Cl)cc1 (centres unmarked) | 18.5
COc1ccc(Cc2nnc(CCc3ccccc3)s2)cc1 | 8.13
C=CCNC(=S)Nc1cccc2[nH]ncc12 | -4.89
COCCn1c(SCC(=O)c2c(N)n(C3CC3)c(=O)[nH]c2=O)nnc1-c1ccc(Cl)cc1 | 13.5
CCCN(Cc1nnc(-c2cccs2)o1)C(=O)c1cccc(S(=O)(=O)N2CCOCC2)c1 | 4.17
Nc1nonc1-n1nnc(C(=O)N/N=C/c2ccncc2)c1CSc1ccccc1 | 11
CCN1CCN(c2nc3ccccn3c(=O)c2/C=C(\C#N)S(=O)(=O)c2ccccc2)CC1 | -4.23
CCCn1c(N)c(C(=O)CSc2nc3ccccc3n2CCC#N)c(=O)n(C)c1=O | -0.576
CNc1ccccc1C(C)(C)c1cc(-c2cccc(Br)c2)no1 | -1.43
COc1cc2c(cc1OC)C(c1cccnc1)CC(=O)N2 (centres unmarked) | -8.98
CCN(CC)C(=O)Cn1nc(C)c2ccccc2c1=O | 11.3
O=C(CO/N=C/c1ccccc1OC(F)F)NC1CCCC1 | 4.45
COc1ccc(S(=O)(=O)n2nc(C)c(S(=O)(=O)N3CCOCC3)c2C)cc1 | 12.5
COc1ccc(/C=N/NC(=O)c2ccc(COc3ccccc3Cl)o2)cc1 | 9.4
O=C(CSc1nnc(NC(=O)c2c(F)cccc2F)s1)NCc1ccco1 | 0.575

Compound | hERG current change (%, negative = inhibition) at 1uM [%]
CCOc1ccc(-c2cc(C(=O)N3CCN(c4ccccn4)CC3)c3ccccc3n2)cc1 | 3.46
CSc1nc(-c2ccco2)nn1C(=O)c1ccco1 | 10.9
Cc1nn(C)c2c(=O)c(=O)c2n(C)[nH]1 | 13.1
O=Cc1ccccc1OCc1nnsc1Cl | 12.5
O=C(Nc1nc2ccccc2s1)C1CC(=O)N(c2ccc(Cl)cc2)C1 (centres unmarked) | 9.21
COc1ccc(S(=O)(=O)Nc2c(C(=O)O)[nH]c3ccccc23)cc1OC | 3.58
O.[I-].c1ccc2[nH]c(-c3cc[nH+]c4ccccc34)nc2c1 | 5.06
CC1CC(OC(=O)C(O)c2ccccc2)CC(C)(C)N1C.Cl (centres unmarked) | 10.1
COc1ccc2c(c1)Cc1sc(NC(=O)c3cccs3)nc1-2 | 2.75
Cc1onc(-c2ccccc2Cl)c1C(=O)N[C@@H](C)c1ccccc1 | 11.2
CC1(C)Cc2c(sc(NC(=O)c3ccc(S(=O)(=O)N4CCCCCC4)cc3)c2C#N)C(C)(C)N1 | -6.9
CN(C)CC(=O)Nc1ccc(S(N)(=O)=O)cc1 | 16.2
CC(=O)N1c2ccc(S(=O)(=O)N(C)CC(=O)Nc3cccc(C)c3)cc2CC1C (centres unmarked) | 13.4
CCN(C(=O)CSc1nc(N)cc(=O)[nH]1)c1c(N)n(Cc2ccccc2)c(=O)[nH]c1=O | 8.53
CCOC(=O)C(C(=O)OCC)C(C)(C)/C(C)=N\Nc1ccc([N+](=O)[O-])cc1[N+](=O)[O-] | -6.17
O=c1[nH]c(-c2ccccc2)ncc1Oc1ccccc1 | 12.4
CCc1cc(C(=O)N(CCCOC)c2c(N)n(Cc3ccccc3)c(=O)[nH]c2=O)sc1C | -9.05
O=C(O)c1cc(-c2ccc(/C=C3\NC(=O)N(c4ccccc4)C3=O)o2)ccc1Cl | 2.1
CCOC(=O)Nc1c(Cl)n(C)c(=O)n(C)c1=O | 14.1
O=C(NCC1OCCCN1S(=O)(=O)c1cc(F)ccc1F)C(=O)NC1CCCC1 (centres unmarked) | 4.53
